# Laboratory results as given in the supplement of paper PMC11417369.
# The other results are listed elsewhere or left out.
# Test system: PfSIP2 AP2 domain 1 (GST-tagged)
# Assay: gcPBM binding intensity (ln(normalized median fluorescence intensity)); higher = stronger DNA binding
# Procedure, shortened: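 Binding intensity is the highest Masliner-normalised natural-log median intensity over replicate spots in either probe orientation. To obtain it, GST-tagged P. falciparum DNA-binding domains made in E. coli were incubated for 1 h on an Agilent 4 × 180k array of primer-extended double-stranded 36-bp intergenic genomic probes plus negative controls. Detection used Alexa488 anti-GST antibody with scanning at 488 nm.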
row,Sequence,gcPBM binding intensity (ln)
1,AATAGTAATTTGAATACACACAATAATATATTTATA [CACACA_site7055],6.97
2,ATATATATTATATAAGTGCATAATATTCTTTCTTTT,8.17
3,TTTTTCATTTCTGCATTTATTTATAAATAAATATTT [CACACA_negctrl_site368],7.38
4,TTTTTTTATCAATGTTGTACTTTTTTTTTTTTCCAT [XGTACX_site8864],6.79
5,TATATATTTTGTGTCTGTACACATATTATTAATTCC [XGTACX_site7507],7.31
6,TTCAAATATAAATACACACACATAGCTACAAAATAA [CACACA_site4172],7
7,TATAAGAGAATATATACACACAAAAATATATACAGT [CACACA_site1668],7.34
8,TACACGCATGGACACACACACACACCCATATATATA [CACACA_site4522],7.36
9,ATATTAACTATCATAACACACACAGTAGACATATTT [CACACA_site6941],6.99
10,TAAATACATAAATACACACACATATATTATATATAT [CACACA_site4310],7.51
11,TATCATATATAAAGAGGTACGTAAGAATAGAAAATT [XGTACX_site798],7.31
12,TTCTTAAAAGGAAAGGTGCAACTTTATCATTTTCTT,10.9
13,TATGAAATTTTAATTACACACAGGAAAATAAAATGG [CACACA_site4935],7.19
14,TAAAAAAAATATTTTTGTACGAATTAAATTTTTTTT [XGTACX_site4838],6.71
15,ACATATTTTTAATACACACTCAAAAAAGTACTTAAC [CACACA_site3014],7.21
16,AAAAAAAGTAAATGTTGTACTATAATATGTAATATA [XGTACX_site7966],6.85
17,AACCACATACATATAACACACATATACAATCTATAT [CACACA_site1987],7.44
18,TACATATATATTATATGTACTTATATTTTTATAATA [XGTACX_site3452],7.02
19,ATATACATATCCATATTTATATCTATATTTAAAACA [CACACA_negctrl_site747],6.81
20,AAATAACACTAATGATGTACTCAACTATTTATAATT [XGTACX_site8183],6.89
21,TATATGATATAATATACACACATACAGATATATATA [CACACA_site4440],7.17
22,AAATTATTAAGTGATATAATATTCTATAGATGGGGA [CACACA_negctrl_site168],7.09

row,Sequence,gcPBM binding intensity (ln)
1,TTTTCCAATTTAAAAGCATGCATCTGTTTTTTTTTT [TGCATGCA_site482],6.76
2,TAGAGGTATAAAATATGTACTTATAAAAACATGAAT [XGTACX_site8916],6.98
3,AGAGGTAGAGAGAAAACATGCATAATGATTTTCATA [TGCATGCA_site958],6.82
4,TATTTACACCTAATCACAAATAAAATAAAATCAAAT [CACACA_negctrl_site531],7.1
5,TTTTTATAACTATATTATATAACTTTTGTACGAACT [CACACA_negctrl_site1423],6.85
6,ACATATAAATAAATAAATATATATATATATATATAT [GTGCAC_negctrl_site378],9.66
7,TAAATCAAAATAATTTAACACACAATTTTAATACTG [CACACA_site8744],6.67
8,GATAAGGTATTCAAATGTACAAAATGTTTTATATAA [XGTACX_site6863],6.93
9,CTTGTATTTAAACACACACACACTTTCTTTTTTTAA [CACACA_site5133],6.96
10,TTAATATTAATATATTGTACATATATGCACATATTT [XGTACX_site6569],7.59
11,AATATTATAATATAAACACACAAAATTCAATTATAT [CACACA_site3789],6.86
12,AACGTTCATATTTCCACACACAAAAAATAAATATAA [CACACA_site3344],7.31
13,AAAAATAAAGGGCGAAAAAAAAAAAAAAAAAAAAAA [GTGCAC_negctrl_site671],6.92
14,ATATTTTATTATTGTTGTACTTTTTTTTGATTGTTT [XGTACX_site4090],6.95
15,TTGACACGTATATGCACACACCCGTAAGTGTCCATT [CACACA_site2764],7.14
16,TTTTTTATGAACACGTCACACATCATTAAAATGTTT [CACACA_site5934],6.84
17,AGTTATAAACATATGTGTACTTATAAAAACATATAG [XGTACX_site3268],7.12
18,TTTAATATTTTTCAATGTAGAAAGTTTGTCTGTTAT [CACACA_negctrl_site973],6.73
19,TCACACATATATTCATGTACATATTAATATTTCCAT [XGTACX_site5387],7.22
20,TTTTGTAAAAAAAAAAAAAAAGGAAAATTAAAATAA [CACACA_negctrl_site803],6.55
21,TTGATGATATAAAAAAGTACTTATATTATATTATAT [XGTACX_site6492],7.1
22,TTTCCTATTTAATATAGTACATAAGAAATAATTTTA [XGTACX_site5952],6.95
